Data as given in PubChem BioAssay AID652104 (National Center for Advancing Translational Sciences (NCATS), 2013).
Where “and” joins values, the source holds several entries; their conditions need not be identical. Equal entries are not always repeated. Among all 410,000 compounds or so, about 7,200 (1.8%) were called active. The inconclusive results got no clear call from the source; some entries with a clear call stand among them for comparison. Calls follow the shape of the dose curve; as a rule, active = well fitted activation curve with a large enough effect; inconclusive = small, poorly fitted or top-dose-only effect, or another doubt; inactive = no such curve, though single readings can be large or run the other way. Where the call is inconclusive, the potency comes from a doubtful curve fit.

Experiment: qHTS of TDP-43 Inhibitors; also: nearly all actives have a fitted effect of over 50% in size; as to growth rescue (activation): % of control where 0% means no effect
Conditions: TDP-43 expressing yeast growth rescue, BacTiter-Glo, 24 h; growth rescue (activation): at 46.1 µM (top of the series) unless noted
Procedure, shortened: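 Cell-based yeast growth screen: TDP-43 expression induced in galactose, inoculum OD600=0.02 after raffinose pregrowth to mid-log. Read-out BacTiter-Glo luminescence at 24 hr, 30 deg C; inhibition of toxicity seen as signal increase.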
Potency is read from the fitted curve at half-maximal effect; tags tell the direction and shape of the fitted curve.

Row | Compound | Potency | growth rescue (activation)
1 | COc1cc(C(N)=O)cc(Br)c1OCc1ccccc1 | inconclusive: 12.6 µM [activator, partial curve, poor fit] | –
2 | COc1ccccc1Cc1c(-c2ccc(C)cc2)nc2c(C)cc(Br)cn12 | active: 35.5 µM | –
3 | CC(OC(=O)/C=C/c1ccco1)C(=O)Nc1cccc([N+](=O)[O-])c1 (stereo unspecified) | inactive | –
4 | N#Cc1c(-c2ccco2)cc(-c2cccnc2)nc1N | inconclusive: 12.6 µM [activator, partial curve] | –
5 | S=c1cn[nH]c2ccccc12 | inconclusive: 1.41 µM [activator, full curve] | –
6 | O=C(OCC(=O)N1c2ccccc2Sc2ccccc21)c1cccnc1 | inconclusive: 35.5 µM [activator, partial curve] | –
7 | CCCCN(Cc1ccccc1)S(=O)(=O)c1ccc2c(c1)CCN2C(=O)C1CCC1 | inconclusive: 15.8 µM [activator, partial curve, poor fit] | –
8 | O=C(OCc1nnc(-c2ccc([N+](=O)[O-])cc2)o1)C1CCN(C(=O)c2ccc(F)cc2)CC1 | inconclusive: 35.5 µM [activator, single point] | –
9 | O=c1oc2ccc3ccccc3c2c2c1SC(C(F)(F)F)C2 (stereo unspecified) | inconclusive: 3.16 µM [activator, single point] | –
10 | CC(C)c1[nH]nc2c1C1(CCN(Cc3ccccc3)CC1)C(C#N)=C(N)O2 | inconclusive: 7.94 µM [activator, full curve, poor fit] | –
11 | COC(=O)c1ccc(OCC2c3cc(OC)c(OC)cc3CCN2C(=O)c2cccc(C)c2)cc1 (stereo unspecified) | active: 25.1 µM | –
12 | Cc1cc2occ(CC(=O)N(C)CC(=O)Nc3ccccc3C(F)(F)F)c2cc1C | active: 20 µM | –
13 | COc1cccc(CNc2ccc(S(=O)(=O)N3CCCC3)cn2)c1 | inconclusive: 35.5 µM [activator, partial curve] | –
14 | O=C1C=CC(=O)N1N(c1ccccc1)c1ccccc1 | – | inconclusive: -92.8% [activator]
15 | COc1ccccc1-c1cc(-c2cc(Cl)ccc2O)n[nH]1 | inconclusive: 11.2 µM [activator, partial curve] | –
16 | Cc1onc(-c2ccccc2)c1C(=O)N/N=C/c1cc(Br)c(O)c(Br)c1 | inactive | –
17 | CCCCSc1nnc(-c2cc3c(C(F)(F)F)nn(C)c3s2)n1C | inconclusive: 15.8 µM [activator, single point] | –
18 | COc1ccc(S(=O)(=O)NCCc2sc(-c3ccccc3)nc2C)cc1OC | inactive | –
19 | CCOC(=O)c1c(C)c(-c2ccccc2)n(CC(=O)N2CCCC2)c1C | inconclusive: 35.5 µM [activator, partial curve] | –
20 | O=C(NCCC1=CCCCC1)c1ccc2c(c1)ncn2-c1cccc(Cl)c1 | inactive | –
21 | CCc1ccccc1NC(=O)CSc1ncc2c(n1)-c1ccccc1N(C)S2(=O)=O | inactive | –
22 | CCOc1ccc(-c2cc(C)n3nc(C(=O)Nc4cc(Cl)ccc4O)cc3n2)cc1 | inconclusive: 11.2 µM [activator, partial curve] | –
23 | CC(C)CN1CCC(=O)N(CCSc2ccccc2)CC1 | inactive | –
24 | Cc1ccc(OCC(=O)N(Cc2nnc(-c3ccccc3Cl)o2)C2CC2)cc1C | inconclusive: 35.5 µM [activator, single point] | –

Row | Compound | Potency | growth rescue (activation)
25 | COc1ccccc1/C=C(\C#N)c1nc(-c2cc3ccccc3oc2=O)cs1 | inactive | –
26 | N#Cc1ccccc1OCC(=O)Nc1nc(-c2ccccn2)cs1 | active: 25.1 µM | –
27 | CC1(C)OC(=O)C2=C(C[C@@H](C3CCCCC3)O[C@@H]2c2ccc(F)cc2)O1 | inactive | –
28 | Cc1cccc(NC(=O)C2CCN(c3ncnc4c3nc3n4CCCCC3)CC2)n1 | inconclusive: 35.5 µM [activator, single point] | –
29 | COc1ccc2oc(C(=O)Nc3nc4ccc(S(C)(=O)=O)cc4s3)c(C)c2c1 | inactive | –
30 | O=C(O)c1ccc(Nc2cccc(F)c2)c([N+](=O)[O-])c1 | inconclusive: 14.1 µM [activator, partial curve] | –
31 | Nc1c(-c2ccccc2)c(CSc2nc3ccccc3[nH]2)nn1-c1cccc(Cl)c1 | inconclusive: 25.1 µM [activator, single point] | –
32 | O=C(NC(Nc1nc2ccc([N+](=O)[O-])cc2s1)(C(F)(F)F)C(F)(F)F)c1ccccc1 | – | inconclusive: -82.7% [activator]
33 | Cc1cccc(-c2noc(CN(C(=O)c3c(-c4ccccc4Cl)noc3C)C(C)C)n2)c1 | inconclusive: 35.5 µM [activator, partial curve, poor fit] | –
34 | CCCCn1nnnc1C1(C)CCC(=O)N1CCc1c[nH]c2ccccc12 (stereo unspecified) | inconclusive: 35.5 µM [activator, partial curve] | –
35 | CCC(CC)C(=O)N1CCc2cc(OC)c(OC)cc2C1COc1ccc(F)cc1 (stereo unspecified) | inconclusive: 35.5 µM [activator, single point] | –
36 | O=[N+]([O-])c1cccc(S(=O)(=O)c2ccc(NCCO)c([N+](=O)[O-])c2)c1 | inconclusive: 35.5 µM [activator, partial curve] | –
37 | O=S(=O)(c1cc(C(F)(F)F)ccc1Cl)N1CCN(c2ccccn2)CC1 | inconclusive: 11.2 µM [activator, partial curve] | –
38 | Cc1ccc(CNC(=O)CSc2c(C(C)C)cnc3c2c(=O)n(C)c(=O)n3C)cc1 | inactive | –
39 | O=C(CSCc1ccc(F)cc1)NCc1ccc(F)cc1 | inconclusive: 11.2 µM [activator, partial curve] and inconclusive: 12.6 µM [activator, single point] | –
40 | NC(N)=NC(N)=Nc1cccc(Cl)c1 | inconclusive: 35.5 µM [activator, partial curve, poor fit] | –
41 | COc1ccc(NC(=O)C[C@H]2C(=O)N(c3ccc(Br)cc3)C[C@@H]2C)cc1 | inconclusive: 5.01 µM [activator, single point] | –
42 | COc1ccc([C@H]2N[C@]3(CCCN(Cc4ccccc4)C3=O)[C@H]3C(=O)N(C)C(=O)[C@@H]23)cc1 | inconclusive: 6.31 µM [activator, full curve, poor fit] | –
43 | CCCCCNC(=O)C1CCC(Cn2c(=O)c3sccc3n(CC)c2=O)CC1 (stereo unspecified) | inconclusive: 10 µM [activator, partial curve] | –
44 | CCn1nc(C)c(/C=N/NC(=O)Cn2cncn2)c1C | inactive | –
45 | CCCCn1nc(C(=O)Nc2ccccc2N2CCCC2)c2ccccc2c1=O | inactive | –
46 | COc1ccc([C@H]2CC(=O)C=C(c3ccc4ccccc4c3)C2)cc1OC | active: 15.8 µM | –
47 | O=C(CC(=O)c1cccs1)c1ccncc1 | inactive | –
48 | Cc1cccc(/C(N)=N/OC(=O)N2c3ccccc3Sc3ccccc32)c1 | inconclusive: 35.5 µM [activator, single point] | –

Row | Compound | Potency | growth rescue (activation)
49 | CN(C(=O)CSc1ncnc2ccccc12)C1CCCCC1 | active: 12.6 µM | –
50 | CCCCOC(=O)c1ccc(NC(=O)c2c(Cl)ccc(Cl)c2OC)cc1 | inactive | –
51 | CCc1ccc(NC(=O)CN2C(=O)CC(c3ccccc3)Sc3ccccc32)cc1 (stereo unspecified) | inactive | –
52 | COc1ccc(-c2cccc(NS(=O)(=O)c3ccc(NC(C)=O)cc3)c2)nn1 | inactive | –
53 | Cc1cccc(NC(=O)Cn2cnc3ccc(S(=O)(=O)N4CCC(C)CC4)cc3c2=O)n1 | inactive | –
54 | CCOC(=O)CSc1cccc2cccnc12 | inactive | –
55 | O=C(Nc1cccc(Cl)c1)OCc1ccccn1 | inconclusive: 3.98 µM [activator, full curve, poor fit] | –
56 | Cc1oc(-c2cccc(Br)c2)nc1Cn1c(SCc2cccc(F)c2)nc2cccnc21 | active: 28.2 µM | –
57 | O=C(CCC1N=C2c3ccccc3N=C(SCc3cccc(Cl)c3)N2C1=O)NCCc1ccccc1 (stereo unspecified) | inconclusive: 0.708 µM [activator, partial curve] | –
58 | CCc1nc2sc3c(N4CCCCC4)ncnc3c2c2c1CCCC2 | inconclusive: 0.316 µM [activator, full curve, poor fit] | –
59 | Cc1nc(-c2ccc(Br)cc2)ccc1C(=O)O | active: 15.8 µM | –
60 | CCc1ccc(S(=O)(=O)NC(=S)NC2CCCCC2)cc1 | inconclusive: 14.1 µM [activator, single point] | –
61 | Cc1ccc(CNc2cc(C(=O)O)ccc2C)s1 | – | inconclusive: 62.3% [activator]
62 | Cc1cc(-c2cccs2)nc(-n2cccc2)n1 | active: 12.6 µM | –
63 | Cc1ccc(CN2C(=O)C3(c4ccccc42)N(c2ccc(C)c(Cl)c2)C(=O)CS3(=O)=O)cc1 (stereo unspecified) | inconclusive: 10 µM [activator, partial curve] | –
64 | Cc1ccc(S(=O)(=O)N/N=C\c2ccc([N+](=O)[O-])o2)cc1C | inconclusive: 11.2 µM [activator, partial curve] | –
65 | O=c1c2ccccc2n(Cc2ccccc2F)c(=O)n1Cc1ccccc1F | inconclusive: 0.562 µM [activator, partial curve, poor fit] | –
66 | Cn1nc(C(C)(C)C)cc1NC(=O)C1(C)CCN1C(=O)c1ccccc1CCc1ccccc1 (stereo unspecified) | inconclusive: 28.2 µM [activator, single point] | –
67 | O=C(COc1ccc2c(c1)CCC2)NCc1ccccc1 | active: 11.2 µM | –
68 | CCCN1C(=O)C(Cc2nc3ccccc3c(=O)n2CC)c2cc(Br)ccc21 (stereo unspecified) | inactive | –
69 | COc1ccccc1N1CCN(C(=O)c2noc(C(C)C)c2[N+](=O)[O-])CC1 | inconclusive: 15.8 µM [activator, partial curve] | –
70 | Cc1ccc(/C=N/NS(=O)(=O)c2ccc([N+](=O)[O-])cc2)o1 | inactive | –
71 | CCc1ccn2cc(-c3cc(-c4ccccc4)no3)nc2c1 | inconclusive: 3.98 µM [activator, single point] | –
